Like-named read-outs stand apart in the source and are kept apart here. These are yes or no findings as the source states them, for the method shown. Binding seen in cells or lysates may run through a third protein. Some binding calls cover weakened binding; strength is not graded here. For some assays here: Sequences can lack the tags named with a protein. Each block holds one molecule with its values, some of them ahead of it.
How the values were obtained:
GST-GATE16 = GST-GATE16 (UniProt P60520); experiment: pull-down; GST-fusion proteins on glutathione-Sepharose beads incubated with whole cell lysates of transfected HEK293T cells for 12 h at 4 °C; washed five times with PBS; immunoblot with anti-GFP or anti-Flag; only the target purified
GFP-TRPML3 = target: T1, GFP-TRPML3 (UniProt Q8TDD5); experiment: co-IP; lysates of transfected HEK293T cells (50 mM HEPES, 150 mM NaCl, 2 mM MgCl2, 1% Triton X-100); anti-GFP antibody, protein A agarose, 4 °C; washed with 0.5% Triton X-100 in PBS; probed with anti-Flag; in some panels cells fed or serum-starved 2 h, or lysate with vehicle or 0.5 mM GTP
T1 sequence: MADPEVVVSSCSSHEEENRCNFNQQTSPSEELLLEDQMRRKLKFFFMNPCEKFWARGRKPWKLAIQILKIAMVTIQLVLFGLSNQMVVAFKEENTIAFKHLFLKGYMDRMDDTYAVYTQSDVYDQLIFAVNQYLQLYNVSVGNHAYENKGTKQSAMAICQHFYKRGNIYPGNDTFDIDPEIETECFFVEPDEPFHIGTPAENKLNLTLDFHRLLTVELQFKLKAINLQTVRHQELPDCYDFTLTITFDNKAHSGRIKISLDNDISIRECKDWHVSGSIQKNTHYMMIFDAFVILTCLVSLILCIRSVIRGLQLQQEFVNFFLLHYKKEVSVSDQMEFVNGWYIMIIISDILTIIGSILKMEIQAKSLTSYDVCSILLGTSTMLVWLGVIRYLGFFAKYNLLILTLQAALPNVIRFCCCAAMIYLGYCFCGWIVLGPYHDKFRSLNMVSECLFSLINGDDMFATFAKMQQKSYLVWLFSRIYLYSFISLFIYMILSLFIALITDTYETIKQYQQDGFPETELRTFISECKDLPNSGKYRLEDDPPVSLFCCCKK

Chains of the proteins cited; added tags and fusions are not shown. Lines headed by an entry give the natural chain unless they say otherwise; changes in a name come on top.
UniProt P60520: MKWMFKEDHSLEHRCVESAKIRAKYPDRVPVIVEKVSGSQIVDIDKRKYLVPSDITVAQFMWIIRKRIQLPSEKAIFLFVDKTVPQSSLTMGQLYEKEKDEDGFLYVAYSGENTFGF
UniProt O95166: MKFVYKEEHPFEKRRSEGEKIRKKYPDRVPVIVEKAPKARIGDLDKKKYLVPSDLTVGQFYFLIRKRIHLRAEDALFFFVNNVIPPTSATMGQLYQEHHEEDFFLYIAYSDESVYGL
UniProt Q9H082: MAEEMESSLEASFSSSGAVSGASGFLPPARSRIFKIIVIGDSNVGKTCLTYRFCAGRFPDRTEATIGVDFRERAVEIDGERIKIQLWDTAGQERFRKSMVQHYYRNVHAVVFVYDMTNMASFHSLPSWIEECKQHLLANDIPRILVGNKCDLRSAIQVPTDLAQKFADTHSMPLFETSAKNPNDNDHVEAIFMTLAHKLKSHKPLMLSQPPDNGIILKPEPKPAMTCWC

GFP-GATE16 [1] = target: GFP-GATE16 (UniProt P60520); experiment: as above
GST-GABARAP (human) = GST-GABARAP (human) (UniProt O95166); experiment: pull-down; GST-fusion proteins on glutathione-Sepharose beads incubated with whole cell lysates of transfected HEK293T cells for 12 h at 4 °C; washed five times with PBS; immunoblot with anti-GFP or anti-Flag; only the target purified
GST-LC3A (human) = GST-LC3A (human) (UniProt Q9H492); experiment: as above
[2] = target: T2, TRPML3 (endogenous) (human (endogenous in HEK293T)) (UniProt Q8TDD5); experiment: co-IP; endogenous proteins: HEK293T lysates precipitated with control IgG or anti-TRPML3 antibody, probed with anti-RAB33B antibody
T2 sequence: T1 sequence

GFP-RAB33B(T47N) (human) = GFP-RAB33B(T47N) (human) (UniProt Q9H082); experiment: co-IP; lysates of transfected HEK293T cells (50 mM HEPES, 150 mM NaCl, 2 mM MgCl2, 1% Triton X-100); anti-GFP antibody, protein A agarose, 4 °C; washed with 0.5% Triton X-100 in PBS; probed with anti-Flag; in some panels cells fed or serum-starved 2 h, or lysate with vehicle or 0.5 mM GTP
GFP-RAB33B(Q92L) (human) = GFP-RAB33B(Q92L) (human) (UniProt Q9H082); experiment: as above
GFP-GATE16 [3] = target: GFP-GATE16 (UniProt P60520); experiment: as above; remark: listed apart in the source
GFP-RAB33B (human) = GFP-RAB33B (human) (UniProt Q9H082); experiment: as above

- binding (GST-GATE16): no binding
- binding (GFP-TRPML3): binds weakly
Molecule: Flag-RAB33B(Y104A, V107A) (from UniProt Q9H082 1-229)

- binding (GST-GATE16): binds
- binding (GFP-RAB33B(T47N) (human)): binds
- binding (GFP-RAB33B(Q92L) (human)): binds
- binding (GFP-GATE16 [3]): binds
- binding (GFP-RAB33B (human)): binds
B1: Flag-TRPML3 (protein, UniProt Q8TDD5 1-553)
chain: T1 sequence

More lines, now with the values behind:

Molecule: Flag-RAB33B (from UniProt Q9H082 1-229)
- binding (GST-GATE16): binds
- binding (GFP-TRPML3): binds
- binding (GFP-GATE16 [1]): binds

Molecule: GFP-TRPML3 (from UniProt Q8TDD5 1-553)
- binding (GST-GABARAP (human)): binds
- binding (GST-LC3A (human)): binds
- binding (GST-GATE16): binds

Molecule: RAB33B (endogenous) (from UniProt Q9H082 1-229)
- binding [2]: binds
